Measured values: PubChem BioAssay AID1508624 (National Center for Advancing Translational Sciences (NCATS), 2021)
Hit rate of the full screen: of about 48,000 compounds, about 120 (0.25%) were called active. About 4% were inconclusive and are not listed. Calls come from the whole dose curve; as a rule, active = well fitted activation curve with a large enough effect; inconclusive = small, poorly fitted or top-dose-only effect, or another doubt; inactive = no such curve, though single readings can be large or run the other way. The list shows a part of the results.

Experiment: Primary qHTS for Identification of Small Molecule Activators of Huntingtin-Antisense Promoter Activity; note: nearly all actives have a fitted effect of over 55% in size
Details: HEK293 HTT-AS promoter firefly luciferase reporter, 24 h; series mostly up to 57.5 µM; activity change, positive = activation: at the top concentration
Summary of the method: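 HEK293 luciferase promoter-reporter cells (2,500/well) plated 24 h, then compounds added at up to 57.5 uM final for 24 h at 37 °C. Firefly luminescence by Dual-Glo, normalized to vehicle (0%) and zero RLU (-100%).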

Activity change, positive = activation, inactive:
Cc1cccc(NC(=O)c2ccc(N(Cc3ccccc3)S(C)(=O)=O)cc2)c1 13.9%
COc1ccc(CNC(=O)c2cnc3sc(N4CCCC4)nn3c2=O)cc1OC -26.7%
Cc1ccc2c(c1)C(c1ccc(F)cc1)N(C(=O)COc1ccc(Cl)cc1Cl)CC(=O)N2 (stereo unspecified) -29.4%
CN1CCC[C@H]1CCO[C@](C)(c1ccccc1)c1ccc(Cl)cc1 -16.5%
Cc1cc2ncn(CCCCOc3ccccc3)c2cc1C -15.8%
CSc1cccc(Nc2nc3c(S(=O)(=O)c4ccccc4)nnn3c3ccc(Cl)cc23)c1 4.16%
O=C(Cn1ncc2ccc(Cl)cc21)NCc1ccc(F)cc1 6.61%
Cc1ccc(C)c(NC(=O)CSc2ncc(S(=O)(=O)c3ccc(C)c(Cl)c3)c(=O)[nH]2)c1 -4.52%
OCc1c[nH]c2ccccc12 -8.82% [at 116 µM, percent change from vehicle, -100% = no light]
O=C(c1ccc2c(c1)N(Cc1ccc(F)cc1)C(=O)c1ccccc1S2=O)N1CCC(Cc2ccccc2)CC1 (stereo unspecified) -35%
COCCNCCCn1c(C(=O)CF)c(-c2ccc(C)cc2)c2c(N)ncnc21 -11.1%
COc1ccc(Cn2c(SCc3ccc(C(=O)NC(C)C)cc3)nc3cccnc32)cc1 -11.3%
CC1(C)CC(O)CC(C)(C)N1[O] -7.53%
CCc1ccc(CNC(=O)c2ccc(NC(=O)N3CCCCc4ccccc43)cc2)cc1 -17.8%
COc1ccccc1NC(=O)c1cccc(S(=O)(=O)N2CCCCCC2)c1 -21.2%
Cc1c(Cl)cccc1NC(=O)Nc1nnc(N2CCCCCC2)s1 0%
CC(=O)NCc1c(I)c(NC(C)=O)c(I)c(C(=O)O)c1I 0.281%
COc1ccc(N2CCN(C(=O)c3cn(CC(C)C)c(=O)c4c3c3ccccc3n4C)CC2)cc1 -13.3%
CC(C)(C)C1CCc2c(sc(NC(=O)Cn3nnc(-c4ccccc4F)n3)c2C#N)C1 (stereo unspecified) 8.06%
C[C@H](NCc1ccc2c(c1)nc(NC(=O)c1ccc(-c3cn[nH]c3)s1)n2CCc1ccccc1)C(C)(C)C -42.8%
O=C(Cn1c(=O)c2cccn2c2ccccc21)Nc1cc(F)ccc1F -14.4%
CCOc1ccc(N(C(=O)Cn2nnc3ccccc32)C(C(=O)NCc2ccccc2)c2ccc(OC)cc2)cc1 (stereo unspecified) -9.34%
CCOC(=O)c1cc(-c2ccccc2)n(-c2cccc(C(=O)Nc3ccc(OC)cc3)c2)c1C -31.6%
COc1ccc(-c2[nH]ncc2C(=O)NCc2ccccc2C)cc1 -10.4%
CC(=O)N1CCCc2cc(S(=O)(=O)N3CCC(C(=O)NCc4ccc(C)cc4)CC3)ccc21 -14.8%
COC(=O)c1ccccc1NC(=O)Cn1c(=O)n(-c2cccc(OC)c2)c(=O)c2c(C)c(C(=O)N(C)C)sc21 1.81%
Cc1onc(-c2ccccc2Cl)c1C(=O)Oc1cc(F)cc(F)c1 -11.5%
CCC(C(=O)NCCc1ccc(SC)cc1)n1nc(C)c2sc3ccccc3c2c1=O (stereo unspecified) -25.4%
Cc1ccc(CCNC(=O)Cn2nc(-c3ccc(C)cc3)ccc2=O)cc1 -17.9%
CCN(CC)CCNC(=O)c1cn(CC)c2ccc(S(=O)(=O)N3CCOCC3)cc2c1=O -4.78%
CC(=O)Nc1cccc(NC(=O)C(=O)NCCc2sc(-c3ccccc3)nc2C)c1 -10.5%
COc1ccc(OCC(=O)OCc2cc(=O)n3nc(C4CCCCC4)sc3n2)cc1 6.43%
O=C(Cn1cc(S(=O)(=O)Cc2cccc(Cl)c2)c2ccccc21)NCCc1ccccc1 -12.8%
Clc1cccc(-n2ncc3c(N4CCCCC4)ncnc32)c1 -50%
Cc1ccc(NC(=O)/C(C#N)=C/c2ccc(C(C)C)cc2)cc1C -10.8%
CCN(c1cccc(C)c1)S(=O)(=O)c1ccc2[nH]cc(C(=O)NCCCOC)c(=O)c2c1 -28.8%
CC(=O)Nc1nonc1-c1nnc(SCC(=O)N(C)c2ccccc2)n1C -19.2%
COc1ccc(CNC(=O)C(=O)Nc2ccc(OC)cc2OC)cc1 0.343%
Cc1nnc(C(C)C)n1C1C[C@H]2CC[C@@H](C1)N2CC[C@H](NC(=O)C1CCC(F)(F)CC1)c1ccccc1 (stereo partly specified) -7.17%
CCOC(=O)c1cnc2c(C)c(Cl)ccc2c1NCCc1ccccc1 -25.3%
CCC1CN(C(=O)N2CCC(C(=O)NCc3cccc(C)c3)CC2)c2ccccc2O1 (stereo unspecified) -32.4%
O=C(Cn1c(=O)nc(-c2ccccc2F)c2cc(Cl)ccc21)N1CCN(c2ccccc2F)CC1 -6.27%
CCCCC(CC)CNC(=O)CN1C(=O)CSc2ccc(S(=O)(=O)N3CCOCC3)cc21 (stereo unspecified) -16.2%
CCOc1ccccc1N(CC)C(=O)c1cc2c(=O)[nH]c3ccc(C)cc3c2s1 -80%
COC(=O)c1scc(-c2ccc(C)cc2)c1S(=O)(=O)Nc1cc(OC)c(OC)c(OC)c1 -3.4%
COc1ccc(CNC(=O)c2c3c(nc4ccccc24)C(=O)N(C2CCCCC2)C3)c(OC)c1 -21.7%
CC(=O)c1ccc(NC(=O)c2cc(S(=O)(=O)N3CCCCCC3)cn2C)cc1 -13.1%
Cc1ccc(NC(=O)CCCc2nnc3n(C)c(=O)c4sccc4n23)cc1F -13%
COc1ccc(-c2nc3c(c(SCC(=O)Nc4ccccc4F)n2)Cc2cc(C)ccc2O3)cc1 15.3%
CC(O)Cn1cnc2c1c(=O)n(C)c(=O)n2C (stereo unspecified) -6.89%
NC(=O)C1(N2CCCCC2)CCN(C(=O)Nc2ccc(F)cc2)CC1 1.65%
CCc1ccccc1NC(=O)CN1C(=O)c2ccccc2Sc2ncccc21 -25.9%
O=C(CNC(=O)c1ccccc1)OCc1cc(=O)n2ccsc2n1 -2.73%
Cc1ccc(C)c(N2CCN(C(=O)C3CCCN(Cc4nc(-c5cccc(Cl)c5)oc4C)C3)CC2)c1 (stereo unspecified) -7.24%
CCCn1cc(S(=O)(=O)c2ccc(CC)cc2)c(=O)c2cc(F)c(N(CC)CC)cc21 -6.57%
CCOc1cccc(NC(=O)CSc2ncc(-c3ccccc3)[nH]2)c1 19.8%
CCOc1ccc(CNC(=O)c2cc(=O)[nH]c3ccc(S(=O)(=O)N4CCCC4)cc23)cc1 -8.43%
COc1ccc(Cl)cc1CNCCSc1nnnn1C -6.1%
CCOc1cccc2sc(N3CCN(C(=O)C4CC4)CC3)nc12 8.95%
Cc1cccc(N2CCN(C(=O)c3ccc4c(c3)N(Cc3cccc(Cl)c3)C(=O)c3ccccc3S4=O)CC2C)c1 (stereo unspecified) -24.3%
Cc1cc(C)cc(NC(=O)CCCn2c3ccccc3c(=O)c3ccccc32)c1 -1.96% [at 11.5 µM, percent change from vehicle, -100% = no light]
